Measurements taken from PubChem BioAssay AID1460 (National Center for Advancing Translational Sciences (NCATS), 2008).
Several values for one entry are separate records, joined by “and”; a condition that tells them apart may be missing. Identical values can stand only once. The campaign covered roughly 270,000 compounds. About 5,800 (2.1%) were called active. This list was built around the results that the source calls inconclusive (neither active nor inactive); the mix of calls is not that of the screen. The call rests on the fitted dose curve; in most records, active means well fitted inhibition curve with a large enough effect; inconclusive means small, poorly fitted or top-dose-only effect; inactive means flat fitted curve, though single readings scatter. Where the call is inconclusive, the potency comes from a doubtful curve fit. Some structures have more than one record in an assay (separate samples or runs), and their calls can disagree.

molecular target: Microtubule-associated protein tau (Homo sapiens) (UniProt P10636); assay: qHTS for Inhibitors of Tau Fibril Formation, Thioflavin T Binding; details: recombinant tau K18 P301L, heparin-induced fibrillization, ThT fluorescence; series mostly up to 57.4 µM; further: nearly all actives have a fitted effect of over 55% in size
Chain of UniProt P10636 (P10636 whole entry, looked up): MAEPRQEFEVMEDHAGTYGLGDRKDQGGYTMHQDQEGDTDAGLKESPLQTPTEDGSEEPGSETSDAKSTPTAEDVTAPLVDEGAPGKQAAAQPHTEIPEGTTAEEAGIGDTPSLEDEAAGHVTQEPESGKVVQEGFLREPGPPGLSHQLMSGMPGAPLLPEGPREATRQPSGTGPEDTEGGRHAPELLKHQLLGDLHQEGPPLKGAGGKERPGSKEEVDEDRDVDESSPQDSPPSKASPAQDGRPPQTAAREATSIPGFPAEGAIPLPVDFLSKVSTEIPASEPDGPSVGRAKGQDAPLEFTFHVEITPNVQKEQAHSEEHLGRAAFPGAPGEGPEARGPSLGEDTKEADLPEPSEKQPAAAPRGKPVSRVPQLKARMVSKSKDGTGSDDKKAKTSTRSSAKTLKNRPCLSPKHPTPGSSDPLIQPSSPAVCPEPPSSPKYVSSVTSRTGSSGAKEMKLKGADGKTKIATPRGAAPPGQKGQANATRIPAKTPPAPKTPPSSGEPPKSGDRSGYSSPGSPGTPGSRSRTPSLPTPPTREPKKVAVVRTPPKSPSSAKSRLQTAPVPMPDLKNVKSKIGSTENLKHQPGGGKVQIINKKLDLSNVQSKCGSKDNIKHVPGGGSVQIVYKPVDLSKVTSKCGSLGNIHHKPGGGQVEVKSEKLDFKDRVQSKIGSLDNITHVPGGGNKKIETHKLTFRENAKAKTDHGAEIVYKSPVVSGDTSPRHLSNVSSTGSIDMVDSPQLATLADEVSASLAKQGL
Outline: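 Fibril formation assay: tau K18 P301L at 15 uM with trace Alexa 594 label, heparin inducer 20 uM, pH 7 sodium acetate buffer, 37 C for 6 hr; endpoint ThT signal.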
Potency means the concentration at half of the fitted maximal effect; tags describe the fitted curve by direction and shape.

Question: Which Potency does the source give for COc1cc(C(=O)NC(=S)Nc2ccc3oc(=O)ccc3c2)cc(OC)c1OC here?
Answer: The Potency was “inactive”.

Question: Which Potency does the source give for CCOC(=O)Cc1csc(NC(=O)COc2ccc3ccccc3c2)n1 here?
Answer: Its Potency is inconclusive: 14.1 µM [inhibitor, partial curve].

Question: Which Potency does the source give for O=C(CN1C(=O)/C(=C/c2ccccc2)SC1=S)NNC(=O)c1ccccc1O here?
Answer: Its Potency is inconclusive: 15.8 µM [inhibitor, single point].

Question: For COc1ccc(-c2[nH]ncc2C(=O)NCc2ccccc2OC)cc1, which Potency is on record?
Answer: The Potency was “inactive”.

Question: Which Potency does the source give for COCCn1c(C)cc(C(=O)COC(=O)c2ccc[nH]c2=O)c1C here?
Answer: The Potency was “inactive”.

Question: For Cc1[nH][nH]c(=O)c1C(c1c(C)[nH][nH]c1=O)c1cn(Cc2ccccc2Cl)c2ccccc12, which Potency is on record?
Answer: Its Potency is active: 11.2 µM.

Question: How did the Potency turn out when CCN(c1ccccc1)S(=O)(=O)c1nnc(NC(=O)COc2ccccc2F)s1 was run?
Answer: The Potency was active: 4.47 µM.

Question: Which Potency does the source give for CCOC(=O)C(=Nc1ccc(Cl)cc1)NO here?
Answer: Its Potency is “inactive”.

Question: With Cc1nnsc1C(=O)N1CCN(c2cc(C(F)(F)F)ccn2)CC1 as the molecule, how does the Potency read?
Answer: The Potency was inconclusive: 10 µM [inhibitor, partial curve].

Question: With COc1ccc(Cl)cc1C(=O)Nc1ccc(NC(C)=O)cc1 as the molecule, how does the Potency read?
Answer: The Potency was “inactive”.

Question: For CC(C)n1nc(C(=O)Oc2ccc(Cl)cc2)c2ccccc2c1=O, which Potency is on record?
Answer: The Potency was inconclusive: 14.1 µM [inhibitor, partial curve, poor fit].

Question: Which Potency does the source give for CNC(=O)Nc1cccc(C(F)(F)F)c1 here?
Answer: Its Potency is “inactive”.

Question: With CC(=O)Nc1nc(C)c(C(C)=O)s1 as the molecule, how does the Potency read?
Answer: The Potency was “inactive”.

Question: Which Potency does the source give for CC(=O)Nc1ccccc1-c1nc2ccccc2n(C(C)C(=O)c2ccc(C)c(C)c2)c1=O (stereo unspecified) here?
Answer: Its Potency is “inactive”.

Question: Fc1ccc(-c2cnn3c(-c4cccs4)ccnc23)cc1 was tested. Which Potency did it give?
Answer: Its Potency is active: 1.41 µM.

Question: With COc1ccc(/C=C2\CCCc3c2nc2ccccc2c3C(=O)O)cc1OC as the molecule, how does the Potency read?
Answer: The Potency was inconclusive: 15.8 µM [activator, partial curve].

Question: Which Potency does the source give for Cc1sc2ncn(CC(=O)NCc3ccco3)c(=O)c2c1-c1ccc(F)cc1 here?
Answer: Its Potency is inconclusive: 35.5 µM [inhibitor, partial curve].

Question: Which Potency does the source give for Cc1ccc(N2CCN(C3=NC(=O)/C(=C\c4cn[nH]c4-c4ccccc4)S3)CC2)cc1 here?
Answer: Its Potency is inconclusive: 3.16 µM [inhibitor, full curve].

Question: With Cc1ccc(CN(C)C(=O)C2CCCN2C(=O)c2cccs2)o1 (stereo unspecified) as the molecule, how does the Potency read?
Answer: The Potency was inconclusive: 22.4 µM [inhibitor, partial curve].

Question: How did the Potency turn out when COc1ccc(/C=C2\SC(=N)N(c3nccs3)C2=O)cc1OC was run?
Answer: The Potency was active: 10 µM.

Question: For Cc1cc(C)c(OCC(=O)Nc2ccc(NC(=O)c3ccco3)cc2)c([N+](=O)[O-])c1, which Potency is on record?
Answer: The Potency was inconclusive: 39.8 µM [inhibitor, single point].

Question: With CC(C)C1NC2(C(=O)c3ccccc3C2=O)C2C(=O)N(c3ccc(F)cc3)C(=O)C12 (stereo unspecified) as the molecule, how does the Potency read?
Answer: Its Potency is “inactive”.

Question: Cc1ccc(S(=O)(=O)NCCCCCC(=O)Nc2nccs2)cc1 was tested. Which Potency did it give?
Answer: The Potency was “inactive”.

Question: Which Potency does the source give for C/C(N)=C(/C#N)C(=O)CSc1nnc(-c2ccc(OC(F)F)cc2)o1 here?
Answer: The Potency was inconclusive: 1 µM [inhibitor, full curve].

Question: COc1ccc(OC)c(NC(=O)CCc2c(C)nc3c(-c4ccccc4)c(C)nn3c2C)c1 was tested. Which Potency did it give?
Answer: Its Potency is inconclusive: 28.2 µM [inhibitor, partial curve, poor fit].

Question: With COc1nc(Oc2ccc(=O)n(-c3ccccc3)n2)nc(N(C)C)n1 as the molecule, how does the Potency read?
Answer: The Potency was “inactive”.

Question: CCC(C)(C)c1ccc(Oc2cccc(C(=O)O)c2)cc1 was tested. Which Potency did it give?
Answer: Its Potency is “inactive”.

Question: For Cc1ccccc1C(=O)N1CCN(C(c2ccccc2)c2ccccc2)CC1, which Potency is on record?
Answer: Its Potency is inconclusive: 25.1 µM [inhibitor, partial curve].

Question: Which Potency does the source give for Cc1cc(C)n(-c2nc(NCCCN(C)C)c3c4c(sc3n2)CCCC4)n1 here?
Answer: The Potency was inconclusive: 0.794 µM [inhibitor, full curve, poor fit].

Question: COc1ccccc1NC1=C(Cl)C(=O)N(C2CCCCC2)C1=O was tested. Which Potency did it give?
Answer: The Potency was inconclusive: 4.47 µM [inhibitor, partial curve].

Question: For COC(=O)N1[C@H](C)C=C[C@]1(Cc1ccccc1)C(=O)OC, which Potency is on record?
Answer: Its Potency is inconclusive: 1 µM [inhibitor, single point].

Question: Which Potency does the source give for Oc1c(Cl)cc(Cl)cc1C1Nc2ccccc2-n2cccc21 (stereo unspecified) here?
Answer: Its Potency is inconclusive: 28.2 µM [inhibitor, partial curve].

Question: For CCSC1=NC2(CCN(C(=O)NC3CCCCC3)CC2)N=C1c1ccc(C)c(C)c1, which Potency is on record?
Answer: The Potency was inconclusive: 14.1 µM [inhibitor, partial curve].

Question: How did the Potency turn out when O=C(COc1ccc(/C=N/NC(=O)CSCc2ccc([N+](=O)[O-])cc2)cc1)NCc1ccco1 was run?
Answer: The Potency was inconclusive: 25.1 µM [inhibitor, partial curve].

Question: How did the Potency turn out when CN1/C(=C/C=C(/C#N)C(N)=O)C(C)(C)c2ccccc21 was run?
Answer: Its Potency is “inactive”.

Question: CC(C)(C)c1csc(SCC(=O)Nc2ccc(Cl)cn2)n1 was tested. Which Potency did it give?
Answer: The Potency was inconclusive: 39.8 µM [inhibitor, partial curve].

Question: Which Potency does the source give for Cc1ccc(-n2c(-c3ccco3)n[nH]c2=S)cc1 here?
Answer: Its Potency is “inactive”.

Question: How did the Potency turn out when COc1cc(C(=O)OC2CC3CCC2(C)C3(C)C)ccc1OC(C)=O (stereo unspecified) was run?
Answer: Its Potency is inconclusive: 6.31 µM [inhibitor, single point].

Question: COC(=O)N/N=C/c1cc([N+](=O)[O-])cc(Br)c1O was tested. Which Potency did it give?
Answer: Its Potency is inconclusive: 10 µM [inhibitor, partial curve].

Question: Cc1ccc2cc(C(c3nnnn3C(C)(C)C)N3CCCCCC3)c(=O)[nH]c2c1 (stereo unspecified) was tested. Which Potency did it give?
Answer: Its Potency is inconclusive: 31.6 µM [inhibitor, partial curve].

Question: How did the Potency turn out when COc1ccc(S(=O)(=O)N2CCCCC2)cc1NC(=O)CSc1ncnc2ccccc12 was run?
Answer: Its Potency is inconclusive: 20 µM [inhibitor, partial curve, poor fit].

Question: How did the Potency turn out when O=C(/C=C/c1ccc(F)cc1)NC(=S)N1CCOCC1 was run?
Answer: The Potency was inconclusive: 3.98 µM [inhibitor, full curve].

Question: How did the Potency turn out when COc1ccc(NC(=O)c2coc3ccccc23)cc1OC was run?
Answer: The Potency was inconclusive: 10 µM [inhibitor, partial curve].

Question: How did the Potency turn out when O=C1c2ccccc2CC1Sc1nnc(-c2ccncc2)o1 (stereo unspecified) was run?
Answer: The Potency was inconclusive: 20 µM [inhibitor, partial curve].

Question: Which Potency does the source give for CCOC(=O)C1CCN(c2ccc([N+](=O)[O-])cc2)CC1 here?
Answer: Its Potency is inconclusive: 7.08 µM [inhibitor, partial curve].

Question: With Cc1cc(/C=N/N2CCN(C)CC2)c(C)n1-c1ccccc1F as the molecule, how does the Potency read?
Answer: Its Potency is inconclusive: 22.4 µM [inhibitor, single point].

Question: For COc1ccc(-c2csc(NC(=O)Cc3cccc4ccccc34)c2C(=O)O)cc1, which Potency is on record?
Answer: The Potency was inconclusive: 20 µM [inhibitor, partial curve, poor fit].

Question: COc1ccc(-c2csc(-c3cccs3)n2)c(OC)c1 was tested. Which Potency did it give?
Answer: Its Potency is inconclusive: 17.8 µM [inhibitor, partial curve].

Question: Which Potency does the source give for Cc1cccc(Nc2nc3ccccc3n3c(N)nnc23)c1 here?
Answer: The Potency was “inactive”.

Question: How did the Potency turn out when CSc1nccc(N2CCN(c3ccc(F)cc3)CC2)n1 was run?
Answer: The Potency was inconclusive: 17.8 µM [inhibitor, partial curve].

Question: How did the Potency turn out when CSc1nsc(SCC(=O)Nc2cccc(C(C)=O)c2)n1 was run?
Answer: The Potency was inconclusive: 20 µM [inhibitor, partial curve].

Question: Cc1ccc(OCC(=O)Nc2ccc3c(c2)OCCO3)cc1C was tested. Which Potency did it give?
Answer: The Potency was inconclusive: 35.5 µM [inhibitor, partial curve].

Question: With CCCC(C(=O)O)N1C(=O)/C(=C/c2cccn2C)SC1=S (stereo unspecified) as the molecule, how does the Potency read?
Answer: The Potency was “inactive”.

Question: Fc1ccc(-c2nnc(CN3CCC(c4nc5ccccc5s4)CC3)o2)cc1 was tested. Which Potency did it give?
Answer: Its Potency is inconclusive: 25.1 µM [inhibitor, single point].

Question: How did the Potency turn out when COc1ccc(C2=Nc3cc(C)ccc3OC2)cc1 was run?
Answer: The Potency was inconclusive: 12.6 µM [inhibitor, partial curve].

Question: With Cc1cccc(N2CCN(C(=S)Nc3ccc4nc(N5CCOCC5)cc(C)c4c3)CC2C)c1 (stereo unspecified) as the molecule, how does the Potency read?
Answer: The Potency was inconclusive: 3.16 µM [inhibitor, full curve].

Question: O=C(/C=C1\NCC2c3ccccc3CCN2C1=O)c1ccccc1 (stereo unspecified) was tested. Which Potency did it give?
Answer: The Potency was “inactive”.

Question: With CCN1CCc2c(OCc3ccc(C)cc3)cccc2C1=O as the molecule, how does the Potency read?
Answer: The Potency was inconclusive: 10 µM [inhibitor, partial curve].

Question: O=C(CSc1nc(=O)[nH]c2c1CCCC2)NCc1ccc(Cl)cc1 was tested. Which Potency did it give?
Answer: The Potency was “inactive”.

Question: For O=C(c1ccccc1O)N1N=C(c2ccccc2)CC1(O)C(F)(F)F (stereo unspecified), which Potency is on record?
Answer: Its Potency is inconclusive: 25.1 µM [inhibitor, partial curve, poor fit].

Question: For Cc1cccn2c1nc(=S)n2C(=O)c1ccco1, which Potency is on record?
Answer: The Potency was inconclusive: 15.8 µM [inhibitor, partial curve].

Question: With O=c1cc(C(Cl)(Cl)Cl)oc2c1ccc1ccccc12 as the molecule, how does the Potency read?
Answer: The Potency was inconclusive: 3.55 µM [inhibitor, full curve].

Question: With NC[C@H](O)c1ccc(O)c(O)c1 as the molecule, how does the Potency read?
Answer: The Potency was “inactive and active: 3.16 µM and active: 3.98 µM”.

Question: O=C(O)c1cccc(NC(=S)N/N=C/c2c[nH]c3ccccc23)c1 was tested. Which Potency did it give?
Answer: Its Potency is inconclusive: 31.6 µM [inhibitor, partial curve].

Question: Which Potency does the source give for O=C(NN=C1c2ccccc2-c2ccccc21)c1ccccn1 here?
Answer: Its Potency is inconclusive: 12.6 µM [inhibitor, partial curve].

Question: Which Potency does the source give for CCOC(=O)CCCCC(=O)c1[nH]c(=O)[nH]c1CSc1nc(C)cc(=O)[nH]1 here?
Answer: The Potency was inconclusive: 14.1 µM [inhibitor, partial curve].

Question: For COc1ccc(C(C#N)N2CCC(c3ccccc3)=N2)cc1OC (stereo unspecified), which Potency is on record?
Answer: Its Potency is inconclusive: 17.8 µM [inhibitor, single point].

Question: For Cc1cc2oc(C(=O)Nc3ccc(S(=O)(=O)Nc4onc(C)c4C)cc3)cc(=O)c2cc1C, which Potency is on record?
Answer: Its Potency is inconclusive: 15.8 µM [inhibitor, partial curve, poor fit].

Question: CCc1ccc(NS(=O)(=O)c2cccc3nonc23)cc1 was tested. Which Potency did it give?
Answer: Its Potency is “inactive”.

Question: For COc1cc(C=O)c(Br)cc1OCc1ccc(C)cc1, which Potency is on record?
Answer: The Potency was inconclusive: 28.2 µM [inhibitor, single point].

Question: Which Potency does the source give for Cc1cc(C)cc(C(=O)Nc2nnc(SCC(=O)N3CCCc4ccccc43)s2)c1 here?
Answer: The Potency was “inactive”.
